Experimental data reported in the BET-seq Pho4 binding data (Le et al. 2018).
The list shows a part of the results. Values were computed here from the reads of four pooled replicates and scatter widely.

molecular target: T1, Pho4 (S. cerevisiae) (UniProt P07270); experiment: relative binding free energy (BET-seq); higher = weaker binding; conditions: reference: library average
T1 sequence: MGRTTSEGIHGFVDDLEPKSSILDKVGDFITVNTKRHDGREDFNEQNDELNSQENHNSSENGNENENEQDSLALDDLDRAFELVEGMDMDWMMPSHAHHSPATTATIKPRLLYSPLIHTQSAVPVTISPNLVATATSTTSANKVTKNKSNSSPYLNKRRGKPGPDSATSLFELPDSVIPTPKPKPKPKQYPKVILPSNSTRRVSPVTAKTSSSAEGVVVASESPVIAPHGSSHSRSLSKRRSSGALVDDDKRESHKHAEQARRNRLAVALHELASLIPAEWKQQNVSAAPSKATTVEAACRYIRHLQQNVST

Row | Sequence | relative binding free energy
1 | TTTGGCACGTGTCGTA | -0.14 kcal/mol
2 | GTGGTCACGTGTCAGA | 0.2 kcal/mol
3 | CGTATCACGTGTGGTT | 0.21 kcal/mol
4 | CTATTCACGTGTGGGC | 0.24 kcal/mol
5 | GGTCTCACGTGAGGGT | 0.38 kcal/mol
6 | GTCGGCACGTGTAAGT | 0.08 kcal/mol
7 | TGTGTCACGTGGCCTT | 0 kcal/mol
8 | ATCGACACGTGGGTTA | -0.01 kcal/mol
9 | ATGGTCACGTGGCTTC | 0.09 kcal/mol
10 | TCGTACACGTGTCGGG | 0.11 kcal/mol
11 | GTACGCACGTGGTTTG | -0.06 kcal/mol
12 | TTAGGCACGTGACGAT | 0.04 kcal/mol
13 | GGACACACGTGGGGGT | -0.07 kcal/mol
14 | AGTATCACGTGCGTTT | 0.09 kcal/mol
15 | GAGTGCACGTGGGAAT | 0.02 kcal/mol
16 | GGACTCACGTGGTGTT | 0.16 kcal/mol
17 | TGGATCACGTGTATAT | 0.27 kcal/mol
18 | AGAGGCACGTGATTAG | -0.08 kcal/mol
19 | ATGTGCACGTGTGAGG | 0.07 kcal/mol
20 | GGGTGCACGTGATGGG | 0.15 kcal/mol
21 | GGGCGCACGTGGTTAT | -0.11 kcal/mol
22 | ATTGGCACGTGAGTTG | 0.1 kcal/mol
23 | GCGTGCACGTGTGAGG | 0.11 kcal/mol

Row | Sequence | relative binding free energy
24 | TTTTGCACGTGTCTAG | 0.08 kcal/mol
25 | GGCTTCACGTGTGCGT | 0.25 kcal/mol
26 | CTTTGCACGTGTGGGT | 0.05 kcal/mol
27 | GGAAACACGTGATGTG | 0.03 kcal/mol
28 | GTATGCACGTGCGTTT | -0.1 kcal/mol
29 | TTATTCACGTGTTGTA | 0.16 kcal/mol
30 | TTGGGCACGTGTGGGC | 0.01 kcal/mol
31 | GCGTGCACGTGTGAGT | -0.03 kcal/mol
32 | AAGTTCACGTGGTTCG | 0.2 kcal/mol
33 | GTATTCACGTGGGTAC | 0.18 kcal/mol
34 | AGCGGCACGTGACGGT | -0.03 kcal/mol
35 | AGTGGCACGTGGGTGG | -0.23 kcal/mol
36 | TGGGCCACGTGGCCGG | -0.19 kcal/mol
37 | GGGACCACGTGGTATG | -0.1 kcal/mol
38 | CATTTCACGTGGGTTG | 0.21 kcal/mol
39 | CTCGTCACGTGGGGAA | -0.05 kcal/mol
40 | GATATCACGTGGGGAA | 0.03 kcal/mol
41 | ATGTGCACGTGAAAGA | 0.23 kcal/mol
42 | GTGGGCACGTGAGCGT | 0.13 kcal/mol
43 | GGTGTCACGTGGATTG | 0.09 kcal/mol
44 | TGAATCACGTGGGGCT | 0.1 kcal/mol
45 | AAAAGCACGTGGGGAA | -0.01 kcal/mol
46 | TGGGCCACGTGGGTTT | -0.03 kcal/mol

Row | Sequence | relative binding free energy
47 | GGAGGCACGTGAGCGC | 0.15 kcal/mol
48 | TTTTGCACGTGTTTCA | 0 kcal/mol
49 | CGCGGCACGTGCGGTG | -0.05 kcal/mol
50 | GGTGGCACGTGGTCCG | -0.16 kcal/mol
51 | TTTGTCACGTGATTTA | 0.25 kcal/mol
52 | GTGGACACGTGCTGGT | -0.03 kcal/mol
53 | TACTTCACGTGTATTT | 0.33 kcal/mol
54 | CTGTTCACGTGAGGAG | 0.28 kcal/mol
55 | GGCATCACGTGGTGAA | 0.25 kcal/mol
56 | AGACGCACGTGGTAGG | -0.15 kcal/mol
57 | ATTGGCACGTGGCTCT | -0.14 kcal/mol
58 | TGCTACACGTGGGGGG | 0.02 kcal/mol
59 | TATGCCACGTGTTTTA | -0.14 kcal/mol
60 | TTCATCACGTGAGTGG | 0.31 kcal/mol
61 | ATCTTCACGTGGGGTC | 0.09 kcal/mol
62 | GTATACACGTGAGGGT | 0.26 kcal/mol
63 | ATGGGCACGTGGTGAC | -0.21 kcal/mol
64 | AAGGGCACGTGTTTTG | -0.09 kcal/mol
65 | TCAATCACGTGTGGTA | 0.23 kcal/mol
66 | CATTTCACGTGGTCAT | 0.32 kcal/mol
67 | CGGTTCACGTGGTGAC | 0.24 kcal/mol
68 | TGTACCACGTGTAGGG | -0.04 kcal/mol
69 | GGGTCCACGTGTGGAT | 0.19 kcal/mol

Row | Sequence | relative binding free energy
70 | AATATCACGTGGGATG | 0.02 kcal/mol
71 | GATATCACGTGTGAAT | 0.25 kcal/mol
72 | AAGGGCACGTGGAAAG | -0.07 kcal/mol
73 | AGTCCCACGTGGGAGG | -0.1 kcal/mol
74 | TCAGTCACGTGGTTTG | 0.09 kcal/mol
75 | ATCATCACGTGAGTTG | 0.22 kcal/mol
76 | GGTGGCACGTGATGAG | -0.02 kcal/mol
77 | TGATTCACGTGTTATA | 0.2 kcal/mol
78 | CCATGCACGTGCGGGG | 0.08 kcal/mol
79 | GGGCACACGTGTGGGG | 0.11 kcal/mol
80 | ATTAACACGTGATTTG | 0.15 kcal/mol
81 | AAAAGCACGTGTATTT | -0.05 kcal/mol
82 | GGTCTCACGTGGACGG | 0.33 kcal/mol
83 | TGGTTCACGTGTACTG | 0.19 kcal/mol
84 | GAGGGCACGTGGAGGT | -0.1 kcal/mol
85 | GTTGGCACGTGCAGCT | -0.06 kcal/mol
86 | TGTCTCACGTGTGGTC | 0.38 kcal/mol
87 | CTGGGCACGTGACGTG | 0.02 kcal/mol
88 | GAGGTCACGTGTATGT | 0.2 kcal/mol
89 | CGGTACACGTGTGGTG | 0.03 kcal/mol
90 | TACTTCACGTGTTTTG | 0.33 kcal/mol
91 | CTTCACACGTGTTGTT | 0.1 kcal/mol
92 | CAGTTCACGTGTTGCT | 0.47 kcal/mol

Row | Sequence | relative binding free energy
93 | GTGTACACGTGGGGGT | -0.14 kcal/mol
94 | TGGATCACGTGGAAGG | 0.24 kcal/mol
95 | TAGATCACGTGTGTGC | 0.13 kcal/mol
96 | ATGACCACGTGGTAGG | -0.1 kcal/mol
97 | TGGTACACGTGGGGTT | -0.07 kcal/mol
98 | GTGCCCACGTGTGTTG | -0.08 kcal/mol
99 | GTGGCCACGTGTGTAT | -0.01 kcal/mol
100 | GTTTTCACGTGCTAGA | 0.43 kcal/mol
101 | TGGGACACGTGTTCTT | 0.04 kcal/mol
102 | TATGACACGTGTGGGA | 0.15 kcal/mol
103 | TAATTCACGTGGTGGA | 0.12 kcal/mol
104 | AGCGACACGTGTTGGT | 0.08 kcal/mol
105 | GTCATCACGTGGTCTG | 0.11 kcal/mol
106 | TAAGGCACGTGGGTCA | -0.18 kcal/mol
107 | GGTGGCACGTGTTGAT | -0.09 kcal/mol
108 | TATGCCACGTGGAGTG | -0.08 kcal/mol
109 | TTTTCCACGTGGGGAG | 0.1 kcal/mol
110 | AAATACACGTGTTTGG | -0.04 kcal/mol
111 | ATCGGCACGTGTGGCA | 0.01 kcal/mol
112 | AAATTCACGTGCTGGT | 0.24 kcal/mol
113 | AATTGCACGTGTGTGT | 0.02 kcal/mol
114 | TGAGGCACGTGGGTAG | -0.22 kcal/mol
115 | AGTGACACGTGTTGGG | 0.05 kcal/mol
